Measured values: the antibiotic and cytotoxicity screens of Wong et al. (2023)
Some of the results follow.

Experiments:
HSkMC = human skeletal muscle cells; test: cytotoxicity call (relative viability < 0.9); conditions: 10 µM
HepG2 = test: cytotoxicity call (relative viability < 0.9); conditions: 10 µM
S. aureus RN4220 = test: growth inhibition call (relative growth <= 0.2); conditions: 50 µM

Row | Compound | cytotoxicity call (HSkMC) | cytotoxicity call (HepG2) | growth inhibition call (S. aureus RN4220)
1 | COc1ccc(NC(=O)Nc2ccc3c(c2)C(=O)N([C@@H](C)CO)C[C@@H](C)[C@H](CN(C)C(=O)CCC(F)(F)F)OCCCC[C@@H](C)O3)cc1 | inactive | inactive | inactive
2 | C[C@H](CO)N1C[C@H](C)[C@@H](CN(C)S(=O)(=O)c2ccc(Cl)cc2)Oc2ccc(NS(C)(=O)=O)cc2CC1=O | inactive | inactive | inactive
3 | COc1ccc(S(=O)(=O)N(C)C[C@@H]2Oc3c(NC(=O)NC(C)C)cccc3C(=O)N([C@@H](C)CO)C[C@@H]2C)cc1 | inactive | inactive | inactive
4 | COc1ccc(S(=O)(=O)N2C[C@H](O)COC[C@H]3O[C@H](CC(=O)N[C@H]4CCN(Cc5ccccc5)C4)CC[C@@H]32)cc1 | inactive | inactive | inactive
5 | Cc1c2oc3c(C)ccc(C(=O)OC(C)C4NC(=O)C(C(C)C)N(C)C(=O)CN(C)C(=O)C5CCCN5C(=O)C(C(C)C)NC4=O)c3nc-2c(C(=O)OC(C)C2NC(=O)C(C(C)C)N(C)C(=O)CN(C)C(=O)C3CCCN3C(=O)C(C(C)C)NC2=O)c(N)c1=O (centres undefined) | inactive | active | active
6 | COc1ccc(S(=O)(=O)N(C)C[C@@H]2Oc3c(NC(=O)Nc4cccc5ccccc45)cccc3C(=O)N([C@H](C)CO)C[C@H]2C)cc1 | inactive | active | inactive
7 | C[C@H]1CN([C@@H](C)CO)C(=O)Cc2cc(NS(=O)(=O)c3cn(C)cn3)ccc2O[C@@H]1CN(C)Cc1ccc(C(=O)Nc2ccccc2N)cc1 | inactive | inactive | inactive
8 | CC(=O)c1cc(S(=O)(=O)c2ccc(C)cc2)c(CC[C@H](COC(=O)NCCCCCC(=O)NO)NC(=O)Nc2nnc[nH]2)o1 | inactive | inactive | inactive
9 | Cc1ccc(S(=O)(=O)N(C)C[C@H]2Oc3c(NC(=O)C4CC4)cccc3C(=O)N([C@H](C)CO)C[C@@H]2C)cc1 | inactive | inactive | inactive
10 | COc1ccc(S(=O)(=O)Nc2ccc3c(c2)C(=O)N([C@H](C)CO)C[C@@H](C)[C@@H](CN(C)S(=O)(=O)c2ccc(F)cc2)O3)cc1 | inactive | inactive | inactive
11 | C[C@@H]1CN([C@H](C)CO)C(=O)c2cc(NC(=O)Cc3cn(C)c4ccccc34)ccc2O[C@@H]1CN(C)Cc1ccc(C(F)(F)F)cc1 | active | active | inactive
12 | COc1cccc(C#Cc2ccc3c(c2)O[C@@H](CN(C)C(=O)CN2CCOCC2)[C@@H](C)CN([C@@H](C)CO)S3(=O)=O)c1 | inactive | inactive | inactive
13 | C=CCNC(=O)[C@H]1[C@@H]2C(=O)O[C@@H](c3ccccc3)[C@@H](c3ccccc3)N2[C@@H](c2ccccc2OCCO)[C@]12C(=O)Nc1ccc(C#CC3=CCCCC3)cc12 | active | inactive | inactive
14 | C[C@@H]1CN([C@@H](C)CO)C(=O)CCCn2nncc2CO[C@@H]1CN(C)C(=O)Nc1ccc(C(C)(C)C)cc1 | inactive | inactive | inactive
15 | Cn1cc(S(=O)(=O)N2CCN(c3ccc(F)cc3)CC2)c(=O)n(C)c1=O | inactive | inactive | inactive
16 | C[C@H]1CN([C@@H](C)CO)C(=O)Cc2cc(NS(=O)(=O)c3ccccc3)ccc2O[C@H]1CN(C)Cc1ccc(C(=O)O)cc1 | inactive | inactive | inactive
17 | NC(=O)NCC#Cc1ccc2c(c1)[C@]1(C(=O)N2)[C@H](C(N)=O)[C@H]2C(=O)O[C@H](c3ccccc3)[C@H](c3ccccc3)N2[C@@H]1c1ccc(OCCO)cc1 | inactive | inactive | inactive
18 | CC(=O)N(O)CCCCCNC(=O)CC(O)(CC(=O)NCCCCCN(O)C(C)=O)C(=O)O | inactive | inactive | inactive
19 | CC(C)NC(=O)N(C)C[C@@H]1Oc2ccc(NS(=O)(=O)c3ccc(Cl)cc3)cc2CC(=O)N([C@H](C)CO)C[C@H]1C | inactive | inactive | inactive
20 | O=C(C[C@@H]1C[C@@H]2c3cc(NC(=O)Cc4ccncc4)ccc3O[C@@H]2[C@@H](CO)O1)NCc1cccc(F)c1 | inactive | inactive | inactive
21 | COc1ccc(NC(=O)Nc2ccc3c(c2)[C@H]2C[C@H](CC(=O)NCc4ccncc4)O[C@H](CO)[C@H]2O3)cc1 | inactive | inactive | inactive
22 | Cc1noc(C)c1S(=O)(=O)N(C)C[C@@H]1Oc2ccc(NS(C)(=O)=O)cc2C(=O)N([C@H](C)CO)C[C@@H]1C | inactive | inactive | inactive
23 | COCC#Cc1cnc2c(c1)C(=O)N([C@H](C)CO)C[C@@H](C)[C@H](CN(C)C(C)=O)O2 | inactive | inactive | inactive
24 | Nc1ccc(O)cc1 | inactive | active | inactive
25 | COc1ccc(CN(C)C[C@@H]2Oc3ccc(NS(C)(=O)=O)cc3C(=O)N([C@H](C)CO)C[C@@H]2C)cc1 | inactive | inactive | inactive
26 | Cc1cc2nc(C(=O)N[C@H]3CCN(C)C3)cc(-c3ccccc3Cl)c2c(C)c1-c1ccc(CO)cc1 | inactive | inactive | active
27 | C[C@@H]1CN([C@H](C)CO)C(=O)c2cc(Br)cnc2O[C@H]1CN(C)C(=O)Nc1ccc(F)cc1 | inactive | inactive | inactive

Row | Compound | cytotoxicity call (HSkMC) | cytotoxicity call (HepG2) | growth inhibition call (S. aureus RN4220)
28 | CCN(CC)CCOc1ccc2c(c1)C(=O)c1cc(OCCN(CC)CC)ccc1-2 | inactive | active | inactive
29 | COc1ccc(NC(=O)N(C)C[C@@H]2OCCCC[C@H](C)Oc3ccc(NS(=O)(=O)c4ccccc4)cc3C(=O)N([C@H](C)CO)C[C@H]2C)cc1 | inactive | inactive | inactive
30 | COc1ccc(S(=O)(=O)N(C)C[C@@H]2Oc3ccc(NC(=O)Cn4cnnn4)cc3CC(=O)N([C@@H](C)CO)C[C@@H]2C)cc1 | inactive | inactive | inactive
31 | COc1ccc(S(=O)(=O)Nc2ccc3c(c2)C(=O)N([C@H](C)CO)C[C@H](C)[C@H](CN(C)S(=O)(=O)c2cccs2)O3)cc1 | inactive | inactive | inactive
32 | C[C@H]1CN([C@@H](C)CO)C(=O)Cc2cc(NS(=O)(=O)c3cn(C)cn3)ccc2O[C@@H]1CN(C)S(=O)(=O)c1ccc(Cl)cc1 | inactive | inactive | inactive
33 | Cc1ccc(S(=O)(=O)Nc2cccc3c2O[C@@H](CN(C)S(=O)(=O)c2ccccc2)[C@H](C)CN([C@@H](C)CO)C3=O)cc1 | inactive | inactive | inactive
34 | Cc1ccc(S(=O)(=O)Nc2ccc3c(c2)CC(=O)N([C@@H](C)CO)C[C@@H](C)[C@H](CN(C)C(=O)Nc2ccc(C(F)(F)F)cc2)O3)cc1 | inactive | inactive | inactive
35 | C[C@H](CO)N1C[C@H](C)[C@H](CN(C)CC2CCCCC2)Oc2ccc(NC(=O)CCN3CCOCC3)cc2CC1=O | inactive | inactive | inactive
36 | COC(=O)C(CC#Cc1ccc2c(c1)[C@]1(C(=O)N2)[C@H](c2ccc(O)cc2)N2[C@H](c3ccccc3)[C@H](c3ccccc3)OC(=O)[C@H]2[C@@H]1C(=O)N1CCCCCCC1)C(=O)OC | inactive | inactive | inactive
37 | COCC(=O)N(C)C[C@@H]1Oc2cc(C#C[C@H](C)O)ccc2S(=O)(=O)N([C@H](C)CO)C[C@@H]1C | inactive | inactive | inactive
38 | COc1ccc(CN(C)C[C@@H]2OCCCC[C@H](C)Oc3ccc(NC(=O)c4ccccc4)cc3C(=O)N([C@@H](C)CO)C[C@@H]2C)cc1 | inactive | inactive | inactive
39 | CC(C)CC#Cc1cnc2c(c1)C(=O)N([C@@H](C)CO)C[C@H](C)[C@@H](CN(C)S(=O)(=O)c1cn(C)cn1)O2 | inactive | inactive | inactive
40 | C=CC(=O)NCCN1CCOCC1 | inactive | inactive | inactive
41 | COc1cccc(NC(=O)N[C@H]2CC[C@@H](CC(=O)N3CCOCC3)O[C@H]2CO)c1 | inactive | inactive | inactive
42 | O=C(C1=C[C@@H](c2coc3ccccc3c2=O)C[C@@H](OCCCCO)O1)N1CCN(Cc2ccc3c(c2)OCO3)CC1 | inactive | inactive | inactive
43 | CNC[C@H]1OCCCC[C@H](C)Oc2ccc(NS(=O)(=O)c3c(C)noc3C)cc2C(=O)N([C@@H](C)CO)C[C@@H]1C | inactive | inactive | inactive
44 | Cc1ccc(S(=O)(=O)N(C)C[C@@H]2OCCCC[C@@H](C)Oc3ccc(NS(=O)(=O)c4ccc(Cl)cc4)cc3C(=O)N([C@@H](C)CO)C[C@H]2C)cc1 | inactive | inactive | inactive
45 | C[C@@H]1CN([C@H](C)CO)C(=O)c2cccc(NC(=O)C3CCCCC3)c2O[C@H]1CN(C)S(=O)(=O)c1cn(C)cn1 | inactive | inactive | inactive
46 | C[C@@H]1CN([C@H](C)CO)C(=O)c2cc(C#Cc3ccccc3)cnc2O[C@H]1CN(C)S(=O)(=O)c1ccccc1F | inactive | inactive | inactive
47 | C[C@@H]1CN([C@@H](C)CO)C(=O)c2cc(NC(=O)Nc3ccc(C(F)(F)F)cc3)ccc2O[C@@H](C)CCCCO[C@@H]1CN(C)Cc1ccncc1 | inactive | active | inactive
48 | C[C@H]1CCCCO[C@H](CN(C)S(=O)(=O)c2ccc(Cl)cc2)[C@@H](C)CN([C@@H](C)CO)C(=O)c2cc(NC(=O)C3CCCCC3)ccc2O1 | inactive | inactive | inactive
49 | C[C@H]1[C@@H](c2ccccc2)OC(=O)CC[C@H](O)[C@@H](O)C[C@@H](CC(=O)NCc2ccc(Cl)cc2)C(=O)N1C | inactive | inactive | inactive
50 | NCc1nnnn1C1CCCCC1 | inactive | inactive | inactive
51 | COc1ccc2c3c([nH]c2c1)[C@H](CO)N(CC1CCCCC1)C[C@]13CN(C1)C(=O)Nc1cccc(c1)F | inactive | inactive | inactive
52 | C[C@H]1CN([C@@H](C)CO)C(=O)Cc2cc(NS(C)(=O)=O)ccc2O[C@@H]1CN(C)Cc1ccc(C(F)(F)F)cc1 | inactive | inactive | inactive
53 | COc1ccc(NC(=O)N(C)C[C@H]2OCCCC[C@H](C)Oc3ccc(NC(=O)Nc4ccc(F)cc4)cc3C(=O)N([C@H](C)CO)C[C@@H]2C)cc1 | inactive | inactive | inactive
